IC50, Vmax and Km data for three molecules are collected here from article PMC7915527, “Development of a Liquid Chromatography/Mass Spectrometry-Based Inhibition Assay for the Screening of Steroid 5-α Reductase in Human and Fish Cell Lines” (Molecules, 2021).

In assay [1] the test system is 5AR (SRD5A1 and SRD5A2) in SW-13 cells. As to conditions: for IC50: read-out: IC50 Value, testosterone at KM, cotreatment 3 h, 95% CI in parentheses.
The subject of assay [2] is 5AR in non-vector HEK-293 cells. The conditions noted are these: testosterone 0 to 50 µM, 95% CI in parentheses.

Take `C[C@]12C=CC(=O)N[C@@H]1CC[C@@H]1[C@@H]2CC[C@]2(C)[C@@H](C(=O)Nc3cc(C(F)(F)F)ccc3C(F)(F)F)CC[C@@H]12` [Dutasteride, dutasteride]: the IC50 (as a rule, the concentration that gives 50% inhibition) in assay [1] was 4.75 nM.

As for `CC(C)(C)NC(=O)[C@H]1CC[C@H]2[C@@H]3CC[C@H]4NC(=O)C=C[C@]4(C)[C@H]3CC[C@]12C` [Finasteride, finasteride], in assay [1], the IC50 is 214 nM.

For the molecule `C[C@]12CC[C@H]3[C@@H](CCC4=CC(=O)CC[C@@]43C)[C@@H]1CC[C@@H]2O` [testosterone], the Vmax in assay [1] (DHT formation from testosterone 0 to 50 µM, 95% CI in parentheses) is given as 29.35 (27.94–30.90) nmol L^−1 h^−1; in assay [2], 4.473 (4.29–4.66) nmol L^−1 h^−1. Moreover, the Km (as a rule, the concentration of substrate that gives half-maximal velocity) turned out to be 0.0194 µM in assay [1] (testosterone 0 to 50 µM, 95% CI in parentheses) and 0.00756 µM in assay [2].
